# Test results reported in PMC4336329 (PLoS ONE, 2015).
# The campaign covered roughly 310,000 compounds. About 2,200 (0.71%) showed an effect of 50% or more. The effect is printed as a negative number. The list shows a part of the results.
# Target: human ether-à-go-go-related gene (hERG) potassium channel (human, UniProt Q12809)
# Assay: primary screen, population patch clamp on CHO cells stably expressing hERG
# Sequence of human ether-à-go-go-related gene (hERG) potassium channel (Q12809 whole entry, looked up): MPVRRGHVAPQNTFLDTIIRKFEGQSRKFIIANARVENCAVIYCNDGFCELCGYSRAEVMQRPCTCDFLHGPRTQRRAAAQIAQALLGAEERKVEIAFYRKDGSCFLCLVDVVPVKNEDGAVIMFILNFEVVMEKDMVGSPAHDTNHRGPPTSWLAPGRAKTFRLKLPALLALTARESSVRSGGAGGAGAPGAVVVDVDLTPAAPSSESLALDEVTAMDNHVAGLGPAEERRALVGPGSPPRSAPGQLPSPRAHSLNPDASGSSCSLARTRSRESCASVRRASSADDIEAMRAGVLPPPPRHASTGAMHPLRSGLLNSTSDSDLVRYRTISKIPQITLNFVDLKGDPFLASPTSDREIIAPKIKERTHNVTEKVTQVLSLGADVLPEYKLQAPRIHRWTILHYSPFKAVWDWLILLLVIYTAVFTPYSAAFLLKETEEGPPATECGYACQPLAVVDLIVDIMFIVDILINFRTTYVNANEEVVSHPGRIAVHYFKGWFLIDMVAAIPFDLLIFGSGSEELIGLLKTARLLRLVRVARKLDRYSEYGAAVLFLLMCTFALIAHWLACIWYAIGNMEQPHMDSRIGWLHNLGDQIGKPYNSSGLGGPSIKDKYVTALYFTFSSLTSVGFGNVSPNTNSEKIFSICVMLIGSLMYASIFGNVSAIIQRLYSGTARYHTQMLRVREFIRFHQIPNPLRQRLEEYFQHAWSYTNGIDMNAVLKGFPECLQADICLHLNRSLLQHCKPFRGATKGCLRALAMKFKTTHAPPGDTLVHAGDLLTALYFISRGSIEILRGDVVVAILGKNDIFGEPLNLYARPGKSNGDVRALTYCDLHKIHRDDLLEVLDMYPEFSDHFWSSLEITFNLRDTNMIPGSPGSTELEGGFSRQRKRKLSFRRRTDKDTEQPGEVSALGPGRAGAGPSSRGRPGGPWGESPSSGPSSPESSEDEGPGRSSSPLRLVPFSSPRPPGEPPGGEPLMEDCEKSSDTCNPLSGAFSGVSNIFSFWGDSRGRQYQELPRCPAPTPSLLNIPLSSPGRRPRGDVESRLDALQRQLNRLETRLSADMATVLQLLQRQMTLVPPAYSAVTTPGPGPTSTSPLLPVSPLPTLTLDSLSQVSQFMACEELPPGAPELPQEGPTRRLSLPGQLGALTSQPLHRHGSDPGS
row,Structure (SMILES),"hERG current change (%, negative = inhibition) at 1uM [%]"
1,COc1ccc(C2CC(c3ccccc3)Nc3nc(NC(=O)c4cccs4)nn32)cc1 (stereo not drawn),13.8
2,C#CCNC(=O)C1=C[C@@H](C2CCCCC2)[C@H](CCCO)[C@@H](OCC)O1,9.95
3,COc1ccc(Cl)c(NCCC(=O)O)c1,6.69
4,CC1(C)CC(=O)c2c(oc3ccc(NS(=O)(=O)c4ccc(C(=O)O)cc4)cc23)C1,13.2
5,Cc1nc2sc(C(c3ccco3)N3CCC(C)CC3)c(O)n2n1 (stereo not drawn),5.41
6,O=C(Nc1cccc(NC(=O)c2ccc(Br)o2)n1)c1ccc(Br)o1,2.37
7,Cc1ccc(Sc2ncnc3onc(C)c23)cc1,7.16
8,N#CCSCC(=O)Nc1ccc(Br)cc1,11.8
9,O=C(c1noc2c1CCCC2)N1CCCCC1,0.265
10,Cc1ccc(N(Cc2cc3ccc(C)cc3[nH]c2=O)S(=O)(=O)c2ccccc2)c(C)c1,15
11,CCOc1cc(N2CCOCC2)c(OCC)cc1NC(=O)COC(=O)c1cc(C)cc(C)c1,14.2
12,O=C(Cn1c(=O)n(-c2ccccc2)c(=O)n1CC(=O)N1CCCCC1)N1CCCCC1,8.33
13,COC(=O)[C@H](C)[C@@H]1C[C@@]1(C)[C@@H](NC(=O)OCc1ccccc1)c1ccccc1,11.7
14,CCCOc1ccc(CCC(=O)O)cc1,5.02
15,CCC1=C(OC(=O)N(CC)CC)N2C(=O)OC(=NCC3CC3)[C@]2(Cc2ccccc2)[C@H]2C1=CC[C@H]1C(=O)N(c3ccccc3)C(=O)[C@H]12,6.82
16,CCOc1ccc(NS(=O)(=O)c2ccc3[nH]c(=O)oc3c2)cc1,7.74
17,COc1ccc([C@@H](NC(=O)OC(C)(C)C)C(=O)OC(C)(C)C)cc1,8.97
18,O=C(Cc1ccccc1F)Nc1ccccc1N1CCCC1,6.58
19,Oc1c(/C=N/Nc2cccc3cccnc23)ccc2ccccc12,6.88
20,CN1CCN(CCOC2c3ccccc3CSc3ccc(Cl)cc32)CC1.O=C(O)/C=C\C(=O)O (stereo not drawn),-4.39
21,Cc1cccc(CN2CCN(Cc3ccco3)CC2)c1.O=C(O)C(=O)O,13.2
22,CCC(C)N=C1SCC(C)(/C=N/O)S1 (stereo not drawn),1.02
23,O=C(Cn1[nH]c(=O)c2ccccc2c1=O)Nc1ccc2c(c1)CCC2,-6.78

row,Structure (SMILES),"hERG current change (%, negative = inhibition) at 1uM [%]"
1,C=CCNC(=O)c1ccc(N(Cc2ccccc2)S(C)(=O)=O)cc1,7.13
2,CCOC(=O)C1=C(C)N(CCCCCC(=O)O)C(=O)NC1c1ccc([N+](=O)[O-])cc1 (stereo not drawn),6.61
3,CC(C)C(=O)N(c1ccc(F)cc1)C1C=CS(=O)(=O)C1 (stereo not drawn),5.57
4,COCCCNC(=O)CCc1ccc(S(=O)(=O)Nc2ccc(C)cc2)cc1,4.6
5,CN1C(=O)N(C)C2C1N(CN1CCCCC1)C(=O)N2CN1CCCCC1 (stereo not drawn),15.9
6,O=C(NC(=S)Nc1cccc2ncccc12)c1cccs1,-8.67
7,COc1ccc(NC(=O)Nc2ccccc2F)c(C)c1,10.3
8,NC(=O)c1ccc(NC(=O)c2ccc(CN3CCOCC3)cc2)cc1,0.733
9,CCOc1cc(C=O)cc(N=Nc2cccc([N+](=O)[O-])c2)c1O,14.2
10,Cl.O=C(CN1CCN(Cc2ccccc2)CC1)N1CCCCCC1,-3.64
11,Cc1ccc(NC(=O)Cn2cccc2)cc1C,0.532
12,COc1ccc(CNC(=O)c2cccnc2SC)cc1OC,13.3
13,O=C(O)CCC(=O)OCC1CCCO1 (stereo not drawn),2.46
14,O=C(NNC(=S)NC1CCCCC1)c1cccs1,2.13
15,CCN(CC)C(CNC(=O)CSc1nnnn1-c1cccc(F)c1)c1ccco1 (stereo not drawn),16.8
16,Clc1ccc(-c2nnc(NC3=NCCCCC3)o2)cc1,10
17,COc1ccc(/C=C/C(=O)Nc2ccc3c(c2)OCCO3)cc1OC,11.3
18,COc1ccc(CCNC(=O)c2nnc(CS(=O)(=O)c3ccccc3)o2)cc1OC,0.362
19,Cc1cc(Br)cc2c1NC(=O)C2(c1c(C)n(C)n(-c2ccccc2)c1=O)c1c(C)n(C)n(-c2ccccc2)c1=O,9.88
20,O=C(COC(=O)C1CCN(S(=O)(=O)c2ccccc2)CC1)NC(=O)c1ccc(OC(F)F)cc1,9.75
21,CCc1ccc(CN(C)C(=O)CCc2nnc(-c3ccc(-c4ccccc4)cc3)o2)nc1,-11.4
22,CCOc1cc(CNc2ccc(N3CCCCC3)cc2)cc(Br)c1OCC(=O)NC(C)(C)C,0.842
23,CC1(C)C(=O)C2(CCCCC2)C(=O)OC1c1ccc(O)cc1 (stereo not drawn),9.66

row,Structure (SMILES),"hERG current change (%, negative = inhibition) at 1uM [%]"
1,CN(C)c1ccc(C2NCC(CCl)O2)cc1 (stereo not drawn),8.38
2,O=C(CSc1ncccn1)NCc1ccccc1,8.59
3,COc1cnc(SCc2c(Cl)cccc2Cl)nc1Cl,6.81
4,Cc1ccc(C(=O)NC2CC3CCC(C2)N3)cc1 (stereo not drawn),14.8
5,Cc1ccc(C(=O)Nc2cccc(-c3ccc(N4CCOCC4)nn3)c2)cc1,4.57
6,Cc1cc(-c2nnnn2-c2cc(Cl)cc(Cl)c2)no1,6.64
7,COc1cc(O)c2c(c1)COC2=O,11.7
8,O=C(CSc1nc2ccccc2c(=O)n1NC(=O)Cc1ccccc1)NCCc1ccccc1,-4.49
9,Cc1cccc(C(=O)c2c[nH]cc2-c2ccccc2)c1,3.09
10,Cc1ccc(CNC(=O)CCC2CCCN(Cc3cccc4cccnc34)C2)o1 (stereo not drawn),-27.4
11,CCCCn1c(SCC(=O)N2CCCC2)nc2cc(S(N)(=O)=O)ccc21,11.8
12,COc1ccc(Nc2ncccc2C(=O)Nc2ccccc2)cc1,6.89
13,Cl.O=S(=O)(CCC1CCCCN1)c1ccccc1 (stereo not drawn),12.8
14,O=c1oc(Cc2ccccc2)nc2ccccc12,14.1
15,O=C(NCCc1ccccc1)C1CCN(C(=O)Nc2ccccc2)CC1,13.3
16,COc1cc(CN2CCNC(=O)C2CC(=O)NCCCN2CCOCC2)cc(OC)c1 (stereo not drawn),11.6
17,CCCCN(C)CCNC(=O)c1c[nH]c2ccc(S(=O)(=O)N(CC)CC)cc2c1=O,11.3
18,Cn1c(=O)oc2cc(S(=O)(=O)N3CCc4ccccc43)ccc21,4.57
19,COc1ccc(NC(=O)c2ccc(C(=O)c3cc(OC)ccc3OC)cc2)cc1,3.08
20,CC1CCCN(C(=O)CNC(=O)c2cccs2)C1 (stereo not drawn),5.23
21,Cc1cccc(N(CC(=O)NCC2CCCO2)C(=O)CCC(=O)Nc2cc(C)on2)c1 (stereo not drawn),15.6
22,COc1ccc(N2C(=O)CSC2c2ccc3c(c2)OCO3)c(OC)c1 (stereo not drawn),6.03
23,O=C(NC1CC1)C1CCN(c2nc3ccccc3s2)CC1,6.3

row,Structure (SMILES),"hERG current change (%, negative = inhibition) at 1uM [%]"
1,CN(C)c1ccc(C(CNS(=O)(=O)c2ccc3ccccc3c2)N2CCOCC2)cc1 (stereo not drawn),1.96
2,O=C(NCc1ccco1)c1cc2nc(-c3cccs3)cc(C(F)(F)F)n2n1,-5.2
3,CN(C)CCCN(C(=O)c1nc2ccccc2s1)c1nc2ccc(F)cc2s1.Cl,8.02
4,Cc1ccc(-c2nn(-c3ccccc3)cc2C(=O)NN2CCN(C)CC2)cc1.Cl,11.2
5,CC(C(=O)N1CCCCC1)n1ncn2cccc2c1=O (stereo not drawn),7.52
6,O=C(CSc1cccc[n+]1[O-])Nc1cccc(Oc2ccccc2)c1,4.77
7,O=C(CN1C(=O)NC2(CCCCCC2)C1=O)NCc1cccs1,0.855
8,COC(=O)CN1C(=S)N(C)C(=O)/C1=C/c1cccs1,8.48
9,CCOC(=O)C1CCN(C(=O)CCCCn2c(=O)[nH]c3ccccc3c2=O)CC1,-5.65
10,CSc1nc(NCc2ccco2)c2c3c(sc2n1)CN(C)CC3,-38.8
11,Cc1cc2nnc(SCC(=O)Nc3cc(S(=O)(=O)N4CCOCC4)ccc3Cl)n2c2ccccc12,6.9
12,Cc1ccc(C2CCN(C(=O)Nc3ccccc3)C2)cc1 (stereo not drawn),11.5
13,CCOC(=O)C(C)Oc1cccc2c(=O)n(CC(=O)NCCc3ccccc3)ccc12 (stereo not drawn),-0.505
14,CC1(C)Cc2c(cnn2-c2ccc(F)cc2)C(NC(=O)CCN2CCCCC2=O)C1 (stereo not drawn),10.4
15,CCc1nnc(NC(=O)CN2C(=O)/C(=C/c3ccc(OC)c(OC)c3)SC2=S)s1,3.13
16,C[N+](C)(N)CCOC(=O)C(O)(c1ccccc1)C1CCCCC1.[Br-] (stereo not drawn),0.351
17,CC1CC(=O)Nc2ccccc2N1S(=O)(=O)c1ccc(C(F)(F)F)cc1 (stereo not drawn),6.72
18,CCN(CC)c1ccc(C(=S)NC2CCCCC2)cc1,6.45
19,Cc1ccc(C)c(Cn2c(=O)n(CCC(=O)NCc3ccco3)c(=O)c3ccccc32)c1,-3.31
20,CN1CCN(C(=O)C(Cc2ccccc2)NS(=O)(=O)c2ccc3c(c2)CCC(=O)N3)CC1 (stereo not drawn),-3.22
21,O=C(NCCC1=CCCCC1)N[C@@H](Cc1ccccc1)C(=O)O,9.13
